{"source": "PubChem BioAssay AID493131", "about": "(Broad Institute, 2011)", "note": "About 3,300 (0.97%) of roughly 340,000 compounds were called active. The shares of active, inactive and inconclusive entries below differ from those in the screen.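 How the source made its calls: active means mean activation above about 17%, with every replicate also reaching it (limit read from the data, passing the limit was not always enough); inconclusive means only one of the two conditions met; inactive means the rest.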", "data": [{"target": "Protein FosB (Mus musculus) (UniProt P13346)", "sequence (P13346 whole entry, looked up)": "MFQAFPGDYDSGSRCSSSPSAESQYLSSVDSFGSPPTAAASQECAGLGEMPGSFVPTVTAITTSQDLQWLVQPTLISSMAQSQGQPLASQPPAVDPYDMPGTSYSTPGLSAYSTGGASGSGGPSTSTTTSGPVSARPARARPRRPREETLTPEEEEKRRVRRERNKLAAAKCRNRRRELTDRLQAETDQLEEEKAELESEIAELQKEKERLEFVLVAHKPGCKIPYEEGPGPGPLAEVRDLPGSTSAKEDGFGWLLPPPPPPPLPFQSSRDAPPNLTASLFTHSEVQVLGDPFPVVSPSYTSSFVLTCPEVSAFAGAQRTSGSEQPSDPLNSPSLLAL", "experiment": "enhancers of mouse delta FosB DNA binding – biochemical, fluorescence polarization, TAMRA-CDK5 oligo, single point, primary screen (AID 493131);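 further: fluorescence polarization rise as delta FosB binds a TAMRA Cdk5 AP-1 oligo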", "details": "purified delta FosB, at 25 µM, active compounds read high, percent of positive-control signal above neutral wells", "values": [{"smiles": "CCOc1ccc(CN(C)CC(O)COC(c2ccc(OC)cc2)c2ccc(OC)cc2)cc1", "note": "(stereo not given)", "activation": "inconclusive: 27.1%"}, {"smiles": "C=CCOc1ccc(/C=C/C(=O)OCC(=O)NC2CCCCCCC2)cc1", "activation": "inactive: -9.02%"}, {"smiles": "COc1ccc2oc(C(=O)OCC(=O)NCCc3ccc(S(N)(=O)=O)cc3)c(C)c2c1", "activation": "active: 25.7%"}, {"smiles": "CCSc1nnc(NC(=O)CSc2nnc(CNC(=O)c3ccccc3F)o2)s1", "activation": "inconclusive: 20.2%"}, {"smiles": "Cc1nc2c(ccc3nc(NC(=O)c4ccc5c(c4)OCCO5)sc32)s1", "activation": "inconclusive: 56%"}, {"smiles": "COC(=O)COc1coc(CN2CCN(c3cccc(Cl)c3)CC2)cc1=O", "activation": "inactive: -11.6%"}, {"smiles": "O=C(COc1ccc2oc(-c3ccccc3)cc(=O)c2c1)Nc1ccccc1", "activation": "inconclusive: 27.7%"}, {"smiles": "CC(=O)N1CCOc2ccc(S(=O)(=O)NC[C@H]3O[C@@H](n4cnc5c(N)ncnc54)[C@H](O)[C@@H]3O)cc21", "activation": "inactive: 1.42%"}, {"smiles": "CC(=O)N1CCCc2cc(S(=O)(=O)NC(C(=O)NCc3ccc(C)cc3)C(C)C)ccc21", "note": "(stereo not given)", "activation": "inconclusive: 16.8%"}, {"smiles": "CCOC(=O)c1cnc(SC2CC(=O)N(c3ccccc3)C2=O)nc1N", "note": "(stereo not given)", "activation": "inconclusive: 18.7%"}, {"smiles": "COc1ccc(-c2nc(C(=O)O)cs2)cc1OC", "activation": "inactive: 0.519%"}, {"smiles": "Cc1cc2cc(CNC(=O)Nc3cccc(Cl)c3)ccc2n1C", "activation": "inconclusive: 17.8%"}, {"smiles": "O=C(Nc1ccc(N2CCCC2)cc1)c1cccc(F)c1", "activation": "active: 19%"}, {"smiles": "N#CCCCC1(CCCC#N)OCCO1", "activation": "inactive: 6.45%"}, {"smiles": "Cc1cc(NC(=O)CSCC(=O)Nc2cc(C(F)(F)F)ccc2N2CCCC2)no1", "activation": "inconclusive: 22.8%"}, {"smiles": "Cn1nc(-c2ccc(Cl)cc2)cc1NC(=O)Nc1ccccc1", "activation": "inconclusive: 17%"}, {"smiles": "O=C(CN1C(=O)/C(=C/c2ccccc2)SC1=S)NNC(=O)c1ccccc1O", "activation": "inconclusive: 25.1%"}, {"smiles": "O=C(Cn1cnc2c(nnn2-c2ccccc2)c1=O)NCc1ccc(F)cc1", "activation": "active: 19.1%"}, {"smiles": "Cc1ccc(NC(=O)Nc2ccc(F)cc2)cc1Cl", "activation": "inactive: -8.14%"}, {"smiles": "Cc1cccc(OCc2nnc(SCC(=O)Nc3cc(C)on3)n2C)c1", "activation": "inconclusive: 18.5%"}, {"smiles": "Cc1cccc(C)c1NC(=O)c1cc2c(=O)c3ccccc3oc2nc1C(F)(F)F", "activation": "active: 49.8%"}, {"smiles": "Nc1nc(SCC(=O)Nc2cc(C(F)(F)F)ccc2Cl)[nH]c(=O)c1NC(=O)c1ccco1", "activation": "active: 48.3%"}, {"smiles": "Cc1csc2c(=O)sc(NC(=O)c3ccc(F)cc3Cl)nc12", "activation": "inconclusive: 16.1%"}, {"smiles": "O=C(CC1S/C(=N/N=C/c2cccs2)NC1=O)Nc1ccc(Cl)cc1", "note": "(stereo not given)", "activation": "inconclusive: 25.3%"}, {"smiles": "Cc1ccc(NC(=S)NCCc2ccccc2)c(C)c1", "activation": "inactive: -0.514%"}, {"smiles": "COc1cc2c(cc1OC)C(COc1ccc3c(C)cc(=O)oc3c1)N(C(=O)c1ccco1)CC2", "note": "(stereo not given)", "activation": "inconclusive: 16.1%"}, {"smiles": "Cc1ccc(Nc2c(-c3ccccn3)nc3ccc(C)cn23)cc1", "activation": "inconclusive: 17.9%"}, {"smiles": "Nc1nc(Nc2ccccc2F)nc(NCc2ccccc2)c1[N+](=O)[O-]", "activation": "inconclusive: 18.7%"}, {"smiles": "Cc1cc(Br)ccc1OCC(=O)NNC(=O)C(=O)Nc1ccccc1", "activation": "inconclusive: 21%"}, {"smiles": "CSc1ccccc1NC(=O)CN(C)C(=O)CNc1ccc(C(F)(F)F)cc1[N+](=O)[O-]", "activation": "inconclusive: 30.4%"}, {"smiles": "COc1ccc(S(=O)(=O)N2CCCCCC2)cc1NC(=O)c1c2c(nc3ccccc13)CCN(Cc1ccccc1)C2", "activation": "inconclusive: 16.6%"}, {"smiles": "CCN(C(=O)COC(=O)c1ncc(Cl)c(Cl)c1Cl)c1c(N)n(Cc2ccccc2)c(=O)[nH]c1=O", "activation": "inconclusive: 17.8%"}, {"smiles": "O=C(CCSc1nnc2scc(-c3ccccc3)n12)Nc1nc(-c2ccccc2)ns1", "activation": "inconclusive: 16.5%"}, {"smiles": "Cc1ccc(C(=O)c2c3ccccc3[n+]([O-])n2CCC(=O)O)cc1", "activation": "inactive: 11.3%"}, {"smiles": "CCOC(=O)N1CCN(S(=O)(=O)c2ccc(C(=O)N(CCN(CC)CC)c3nc4c(C)cccc4s3)cc2)CC1", "activation": "inconclusive: 27.5%"}, {"smiles": "O=C(CSc1nnc(Cc2cccs2)n1C1CC1)NC1CCS(=O)(=O)C1", "note": "(stereo not given)", "activation": "inactive: -7.65%"}, {"smiles": "COc1cccc(-n2c(SCC(=O)NCC3CCCO3)nc3c([nH]c4ccccc43)c2=O)c1", "note": "(stereo not given)", "activation": "inactive: -7.31%"}, {"smiles": "N#Cc1ccccc1Sc1ccccc1C(=O)OCC(=O)NC1CCCCC1", "activation": "inconclusive: 21.3%"}, {"smiles": "COc1ccc2cc1Oc1ccc(cc1)C[C@H]1c3c(cc(OC)c4c3Oc3c(ccc5c3[C@H](C2)N(C)CC5)O4)CCN1C", "activation": "inconclusive: 36.1%"}, {"smiles": "COc1cccc(Nc2n[nH]c(=S)s2)c1", "activation": "inactive: 4.32%"}, {"smiles": "CCc1ccc(NC(=O)c2c(C(=O)Nc3ccccc3)sc3nc(C)cc(=O)n23)cc1", "activation": "active: 35%"}, {"smiles": "Cc1nc(NC(=S)NC(=O)c2cncc(Br)c2)ccc1Br", "activation": "active: 20.7%"}, {"smiles": "CC(=O)Nc1ccc(NC(=O)COc2ccccc2C(=O)Nc2cccc(Cl)c2Cl)cc1", "activation": "active: 26%"}, {"smiles": "Cc1cc(C)cc(NC(=O)Cn2nnc(C(=O)NCc3cccs3)c2N)c1", "activation": "active: 58.3%"}, {"smiles": "COc1cc(/C=C2/SC(N)=NC2=O)ccc1Oc1ccc([N+](=O)[O-])cc1[N+](=O)[O-]", "activation": "inconclusive: 17.8%"}, {"smiles": "COC(=O)c1c(NC(=O)COc2ccc(Cl)cc2Cl)sc2c1CC(C)(C)NC2(C)C", "activation": "inconclusive: 20.2%"}, {"smiles": "Nc1cc2c(cc1[N+](=O)[O-])-c1ccccc1C2=NO", "activation": "inconclusive: 18.8%"}, {"smiles": "Cn1c(=O)[nH]c(=O)c2c1nc1n2CC(COc2ccc3ccccc3c2)O1", "note": "(stereo not given)", "activation": "inconclusive: 18.5%"}, {"smiles": "O=C(CN1CCN(c2ccccn2)CC1)Nc1cc(C(F)(F)F)ccc1Cl", "activation": "inactive: -5.3%"}, {"smiles": "Cc1ccc(-c2cc(C#N)c(=O)n(Cc3c(Cl)cccc3Cl)c2)cc1", "activation": "inconclusive: 21.1%"}, {"smiles": "Cc1ccc(NC(=O)C2CC(=O)N/C(=N/N=C/c3ccco3)S2)cc1C", "note": "(stereo not given)", "activation": "inconclusive: 19%"}, {"smiles": "CCN(CC)c1ccc(C=C2C(=O)OC3(CCCC3)OC2=O)cc1", "activation": "inconclusive: 16.9%"}, {"smiles": "CCOC(=O)c1c(S(=O)(=O)NCCc2ccc(OC)c(OC)c2)c(C)n(C)c1C", "activation": "inactive: -3.21%"}, {"smiles": "Cc1cccc(NC(=O)c2cc(S(=O)(=O)N3CCc4ccccc43)cn2C)c1", "activation": "inconclusive: 17.2%"}, {"smiles": "NC(=O)c1oc2ccccc2c1NC(=O)C1COc2ccccc2O1", "note": "(stereo not given)", "activation": "inconclusive: 16.3%"}, {"smiles": "CCc1ccccc1NC(=O)Cn1nnc(-c2cccs2)n1", "activation": "inconclusive: 16.6%"}, {"smiles": "Cc1ccc2oc(-c3cccc(NC(=O)Cc4cccs4)c3)nc2c1", "activation": "inconclusive: 30.1%"}, {"smiles": "O=C(Cc1ccc(Cl)cc1)NNC(=O)Nc1cccc2ccccc12", "activation": "inconclusive: 24.3%"}, {"smiles": "CNc1ccccc1C(C)(C)c1cc(-c2cccc(Br)c2)no1", "activation": "inconclusive: 16.5%"}, {"smiles": "Cc1ccc(Cn2nnc3c(=O)[nH]c(C4CCCN(S(=O)(=O)c5ccccc5F)C4)nc32)cc1", "note": "(stereo not given)", "activation": "inconclusive: 17.6%"}, {"smiles": "CN(C)CCCN(C(=O)c1cc2cc([N+](=O)[O-])ccc2s1)c1nc2cc3c(cc2s1)OCCO3", "activation": "inconclusive: 33%"}, {"smiles": "CN(C)CCNc1ccc(CO)c2sc3ccc(O)cc3c(=O)c12", "activation": "active: 38.2%"}, {"smiles": "CCN(C(=O)COC(=O)c1c(NC(C)=O)sc(C)c1C)c1c(N)n(Cc2ccccc2)c(=O)[nH]c1=O", "activation": "inconclusive: 36.1%"}, {"smiles": "O=C(NCCN1CCOCC1)C(=O)NCC1OCCCN1S(=O)(=O)c1cc(F)ccc1F", "note": "(stereo not given)", "activation": "inactive: 1.77%"}, {"smiles": "C[C@]12C(=O)N(c3cccc(Cl)c3)C(=O)N1[C@H]1c3ccccc3OC[C@@H]1[C@H]2c1ccccc1", "activation": "inactive: -2.44%"}, {"smiles": "CC(=O)Nc1ccc(NC(=O)c2ccc(-c3ccccc3Cl)o2)cc1", "activation": "inconclusive: 17.4%"}, {"smiles": "O=C(CCCCn1c(=O)c2ccccc2n(CC(=O)Nc2cccc(F)c2)c1=O)NCc1ccco1", "activation": "active: 24.4%"}, {"smiles": "CCCn1c(=O)c2ccccc2n2c(SCC(=O)c3ccccc3)nnc12", "activation": "inactive: -5.42%"}, {"smiles": "O=C(CCN1C(=O)/C(=C/c2ccccc2)SC1=S)N1CCCCCC1", "activation": "inactive: -11.2%"}, {"smiles": "Nc1ccc(-c2nc3ccccc3o2)cc1", "activation": "inactive: -9.95%"}, {"smiles": "Cc1c(C)c2ccc(OCC(=O)Nc3nccs3)cc2oc1=O", "activation": "active: 31.5%"}, {"smiles": "N/C(=N\\N=C\\c1cccs1)SC1CC(=O)N(c2ccc(Br)cc2)C1=O", "note": "(stereo not given)", "activation": "inconclusive: 19.9%"}, {"smiles": "CCCCCC1C(=O)C[C@@H]2CCN3C(=O)CCC[C@H]1[C@H]23", "note": "(stereo not given in full)", "activation": "inactive: -9.42%"}, {"smiles": "COc1c(F)c(F)c(C(=O)Nc2ccc(NC(=O)c3ccco3)cc2)c(F)c1F", "activation": "inconclusive: 20.1%"}, {"smiles": "CC(=O)Nc1cc(C(=O)OC(C(=O)c2ccccc2)c2ccccc2)ccc1C", "note": "(stereo not given)", "activation": "inactive: -16.6%"}, {"smiles": "COc1ccc(-c2nc3cc(NC(=O)c4ccc5c(c4)OCO5)ccc3o2)cc1", "activation": "inactive: 10.8%"}, {"smiles": "O=C(/C=C/c1ccccc1)NC(=S)Nc1ccccc1C(=O)NC1CCCCC1", "activation": "active: 39.3%"}, {"smiles": "C/C(=N\\NC(=O)c1nnn(-c2nonc2N)c1-c1ccccc1)c1ccccc1O", "activation": "active: 33.3%"}, {"smiles": "CCN1CCN(C(=O)c2ccc(COc3ccc(Cl)cc3)o2)CC1", "activation": "inactive: -10.6%"}, {"smiles": "COc1ccc(Br)cc1/C=C/C(=O)NC(=S)Nc1ccc(CN2CCOCC2)cc1", "activation": "active: 48.3%"}, {"smiles": "CC1CCc2c(sc(NC(=O)C(=O)NCc3ccco3)c2C#N)C1", "note": "(stereo not given)", "activation": "inconclusive: 36%"}, {"smiles": "COc1ccc(/C=N/n2c(=O)[nH]c3c([nH]c4ccc(F)cc43)c2=O)cc1CN1CCCCC1", "activation": "active: 31.5%"}, {"smiles": "COc1ccc2[nH]c3c(=O)n(CCCC(=O)NC4CCC(C)CC4)c(=S)[nH]c3c2c1", "note": "(stereo not given)", "activation": "active: 53.2%"}, {"smiles": "O=C(Nc1ccc(F)cc1)Nc1ccc([N+](=O)[O-])cn1", "activation": "inconclusive: 18.4%"}, {"smiles": "CCn1c(=O)c(C(=O)CN2CCN(S(=O)(=O)c3ccc(C)cc3C)CC2)c(N)n(Cc2ccccc2)c1=O", "activation": "inconclusive: 19.8%"}]}]}
